The supplement of paper PMC4967469
Lines with a small IC50 respond at low doses; a limit (>, <) means that the fit lies beyond the doses tested. For AUC the same curve is integrated over the 256-fold range of doses and scaled to a fraction; the more sensitive the line, the further below 1. A top dose marked as inferred was calculated from the reported fits.

The cell lines below were run with COc1ccccc1S(=O)(=O)Nc1ccc2c(c1)CN(C)C(=O)N2 [PFI-1] (assay: Viability of human cancer cell lines after 72 h of drug (GDSC screen)). Conditions: top dose 10 µM; top dose inferred.
Experimental: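 Human cancer cell lines in 384-well plates, medium with 10% serum, drug for 72 h over a 256-fold dose range (nine 2-fold or five 4-fold steps up to the top dose). Adherent lines were fixed and stained with the nucleic acid dye Syto60, suspension lines read with resazurin; signal relative to control wells, capped at 0 and 100%. One two-parameter sigmoid per drug and line, fitted in a mixed model over all curves with the slope shared within a line.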

Question: “NCI-H1650 (lung adenocarcinoma, adherent)” was tested. Which AUC did it give?
Answer: The AUC was 0.932.

Question: And the IC50?
Answer: The IC50 was over 10 µM.

Question: Which AUC does the source give for DIFI (large intestine, adherent) here?
Answer: Its AUC is 0.922.

Question: And the IC50?
Answer: Its IC50 is over 10 µM.

Question: RCH-ACV (B-cell leukaemia, suspension) was tested. Which AUC did it give?
Answer: The AUC was 0.881.

Question: What about the IC50 of the same cell line?
Answer: The IC50 was 7.36 µM.

Question: Which AUC does the source give for H2810 (mesothelioma, adherent) here?
Answer: Its AUC is 0.862.

Question: And the IC50?
Answer: Its IC50 is over 10 µM.

Question: CL-40 (large intestine, adherent) was tested. Which AUC did it give?
Answer: The AUC was 0.925.

Question: What about the IC50 of the same cell line?
Answer: Its IC50 is over 10 µM.

Question: How did the AUC turn out when PWR-1E (prostate, adherent) was run?
Answer: The AUC was 0.972.

Question: And the IC50?
Answer: The IC50 was over 10 µM.

Question: How did the AUC turn out when “NCI-H1341 (small cell lung carcinoma, suspension)” was run?
Answer: The AUC was 0.924.

Question: What about the IC50 of the same cell line?
Answer: Its IC50 is over 10 µM.

Question: Which results are given for “NCI-H508 (large intestine, semi-adherent)”?
Answer: AUC: 0.851; IC50: > 10 µM

Question: How did the AUC turn out when OCI-LY7 (B-cell lymphoma, suspension) was run?
Answer: Its AUC is 0.982.

Question: What about the IC50 of the same cell line?
Answer: The IC50 was over 10 µM.

Question: Which AUC does the source give for A549 (lung adenocarcinoma, adherent) here?
Answer: Its AUC is 0.806.

Question: What about the IC50 of the same cell line?
Answer: Its IC50 is 5.85 µM.

Question: With SUP-B8 (B-cell leukaemia, suspension) as the cell line, how does the AUC read?
Answer: Its AUC is 0.964.

Question: What about the IC50 of the same cell line?
Answer: The IC50 was over 10 µM.

Question: What does the source list for Jurkat (T-cell leukaemia, suspension)?
Answer: AUC: 0.821; IC50: 4.5 µM

Question: What does the source list for MKN7 (stomach, adherent)?
Answer: AUC: 0.973; IC50: > 10 µM

Question: How did the AUC turn out when NCI-N87 (stomach, adherent) was run?
Answer: Its AUC is 0.873.

Question: What about the IC50 of the same cell line?
Answer: The IC50 was over 10 µM.

Question: What does the source list for BALL-1 (B-cell leukaemia, suspension)?
Answer: AUC: 0.955; IC50: > 10 µM

Question: What does the source list for NCI-H929 (myeloma, suspension)?
Answer: AUC: 0.673; IC50: 1.74 µM

Question: How did the AUC turn out when CRO-AP2 (B-cell lymphoma, suspension) was run?
Answer: The AUC was 0.685.

Question: What about the IC50 of the same cell line?
Answer: Its IC50 is 1.9 µM.

Question: Which AUC does the source give for “NCI-H146 (small cell lung carcinoma, suspension)” here?
Answer: Its AUC is 0.936.

Question: What about the IC50 of the same cell line?
Answer: The IC50 was over 10 µM.

Question: MEL-HO (melanoma, adherent) was tested. Which AUC did it give?
Answer: Its AUC is 0.772.

Question: What about the IC50 of the same cell line?
Answer: The IC50 was 3.9 µM.

Question: Which AUC does the source give for CL-34 (large intestine, adherent) here?
Answer: The AUC was 0.898.

Question: And the IC50?
Answer: The IC50 was over 10 µM.

Question: How did the AUC turn out when EW-22 (Ewing sarcoma, adherent) was run?
Answer: Its AUC is 0.77.

Question: And the IC50?
Answer: The IC50 was 3.64 µM.

Question: What does the source list for RH-18 (rhabdomyosarcoma, adherent)?
Answer: AUC: 0.84; IC50: 8.39 µM

Question: What does the source list for KATOIII (stomach, semi-adherent)?
Answer: AUC: 0.975; IC50: > 10 µM

Question: Which AUC does the source give for U-266 (myeloma, semi-adherent) here?
Answer: The AUC was 0.948.

Question: What about the IC50 of the same cell line?
Answer: Its IC50 is over 10 µM.

Question: With “NCI-H1105 (small cell lung carcinoma, suspension)” as the cell line, how does the AUC read?
Answer: The AUC was 0.922.

Question: What about the IC50 of the same cell line?
Answer: The IC50 was over 10 µM.

Question: For NCI-H835 (lung carcinoid, suspension), which AUC is on record?
Answer: The AUC was 0.939.

Question: What about the IC50 of the same cell line?
Answer: Its IC50 is over 10 µM.

Question: Which AUC does the source give for “MOLT-16 (T-cell lymphoblastic leukaemia, suspension)” here?
Answer: Its AUC is 0.708.

Question: What about the IC50 of the same cell line?
Answer: The IC50 was 2.09 µM.

Question: For “COR-L32 (small cell lung carcinoma, suspension)”, which AUC is on record?
Answer: The AUC was 0.834.

Question: And the IC50?
Answer: Its IC50 is over 10 µM.

Question: Which AUC does the source give for IGROV-1 (ovary, adherent) here?
Answer: The AUC was 0.925.

Question: What about the IC50 of the same cell line?
Answer: Its IC50 is over 10 µM.

Question: Which results are given for BT-549 (breast, adherent)?
Answer: AUC: 0.841; IC50: > 10 µM

Question: For “VMRC-LCD (lung adenocarcinoma, adherent)”, which AUC is on record?
Answer: Its AUC is 0.896.

Question: And the IC50?
Answer: The IC50 was 8.68 µM.

Question: How did the AUC turn out when “KARPAS-1106P (B-cell lymphoma, suspension)” was run?
Answer: Its AUC is 0.862.

Question: And the IC50?
Answer: The IC50 was 6.25 µM.

Question: “MOLM-16 (acute myeloid leukaemia, suspension)” was tested. Which AUC did it give?
Answer: Its AUC is 0.628.

Question: What about the IC50 of the same cell line?
Answer: The IC50 was 1.34 µM.

Question: What does the source list for “NCI-H2066 (small cell lung carcinoma, adherent)”?
Answer: AUC: 0.891; IC50: > 10 µM

Question: Which results are given for ZR-75-30 (breast, adherent)?
Answer: AUC: 0.981; IC50: > 10 µM

Question: With SK-GT-2 (stomach, adherent) as the cell line, how does the AUC read?
Answer: The AUC was 0.81.

Question: What about the IC50 of the same cell line?
Answer: Its IC50 is 5.62 µM.

Question: SK-MEL-31 (melanoma, adherent) was tested. Which AUC did it give?
Answer: Its AUC is 0.936.

Question: And the IC50?
Answer: The IC50 was over 10 µM.

Question: “HCC-366 (non-small cell lung carcinoma, adherent)” was tested. Which AUC did it give?
Answer: The AUC was 0.925.

Question: And the IC50?
Answer: Its IC50 is over 10 µM.

Question: What does the source list for “MHH-CALL-2 (B-cell leukaemia, suspension)”?
Answer: AUC: 0.997; IC50: > 10 µM
